For 69 compounds, displacement results are on record in PubChem BioAssay AID1240 (Sanford-Burnham Center for Chemical Genomics, 2008).

Among all 50,000 compounds or so, about 800 (1.6%) showed an effect of 50% or more. This is one part of the list.

The test deals with Bcl-2-like protein 10 (Homo sapiens) (UniProt Q9HD36). The experiment in a line: TR3 peptide-Bcl-B binding displacers, biochemical primary FP assay, phenotype converters (AID 1240).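 Also: 0% = Bcl-B with tracer peptide and DMSO and 100% = tracer peptide lacking Bcl-B.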 The conditions noted are these: GST-Bcl-B / FITC-TR3 peptide fluorescence polarization; stronger effect = higher value; compound at 3.75 mg/L.
Chain of UniProt Q9HD36 (Q9HD36 whole entry, looked up): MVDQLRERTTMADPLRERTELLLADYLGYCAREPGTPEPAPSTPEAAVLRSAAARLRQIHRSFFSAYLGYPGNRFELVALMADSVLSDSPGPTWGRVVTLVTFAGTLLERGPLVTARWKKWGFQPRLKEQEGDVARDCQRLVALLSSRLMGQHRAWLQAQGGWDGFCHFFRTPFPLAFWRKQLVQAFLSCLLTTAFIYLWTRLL
As for `Cc1cccc(C(=O)N/C(=C/c2ccc(Br)cc2)C(=O)NN)c1`, the displacement was -13.9%.

Regarding `O=C(CN(c1ccc(F)cc1)S(=O)(=O)c1ccccc1)Nc1ccccc1Br`, the displacement is -0.6%. In the case of `COCCCNC(=O)Cc1ccc(OC)c(OC)c1`, the displacement was 10%. For `COc1ccc(C2/C(=C(/O)c3ccc(Cl)cc3)C(=O)C(=O)N2CCCC(=O)O)cc1` (centres undefined), the displacement came to 3.2%. `CCOc1cccc(C(=O)Nc2nnc(-c3cccc(OCC)c3)s2)c1`: the displacement was found to be 8.7%. As for `COc1cc2c(cc1NC(=O)c1c(-c3ccccc3Cl)noc1C)oc1ccccc12`, the displacement is -0.9%. Then `Cc1ccc(C(=O)N/C(=C\c2cccc(Oc3ccccc3)c2)C(=O)NCCN2CCOCC2)cc1`, with 7.8%. As to `CCCN1C(=O)/C(=C/c2nc3ccccc3c(=O)n2Cc2ccccc2)c2ccccc21`, the displacement was -8.3%. Regarding `Cc1ccccc1C(=O)NN1C(=O)/C(=C\c2ccc(N(C)C)cc2)SC1=S`, the displacement was -58.6%. Then `CCC1CCc2c(sc(NC(=O)COc3ccc(Cl)cc3Cl)c2C(N)=O)C1` (centres undefined), with 12.1%.

Consider `NC(=O)c1ccc(NC(=O)c2cccc(I)c2)cc1`, for which the displacement was -5.7%.

On to `COc1ccc(/C=N/n2cnnc2SC)cc1OC`, for which the displacement was determined as 2.8%.

On to `O=C(O)CCN1C(=O)c2ccc(Oc3ccc([N+](=O)[O-])cc3)cc2C1=O`, for which the displacement was -20.9%. With `Cc1ccc2nc(NC(=O)C3CCCN3C(=O)OC(C)(C)C)sc2c1` (centres undefined) the figure was 8%; with `CC(CN1CCCCC1)C(=O)c1ccccc1` (centres undefined), 10%; with `COc1cccc(/C=N/Nc2nc(N3CCCCC3)nc(N3CCCCC3)n2)c1O`, 3.8%. For the compound `COc1ccc(C(=O)Nc2cc(C(=O)O)cc(C(=O)O)c2)cc1`, the displacement amounted to 28.6%. For the compound `O=C(Nc1nc(-c2ccc([N+](=O)[O-])cc2)cs1)c1ccc(Cl)cc1`, the displacement came out at 8.7%.

With `O=C1C(=O)N(c2cccc([N+](=O)[O-])c2)C(c2ccccc2F)/C1=C(/O)c1ccccc1` (centres undefined), the displacement came to 11.1%.

For the compound `Cc1cc2nc3s/c(=C/c4cn[nH]c4-c4ccccc4)c(=O)n3c2cc1C`, the displacement was determined as 11.7%. For the compound `COc1ccc(N=Cc2c(O)n(-c3cc(OC)ccc3OC)c(=O)[nH]c2=O)cc1`, the displacement was found to be 103%.

Turning to `Cc1nn(C2CCCCC2)c(N)c1C#N`, the displacement is -5.4%. Consider `CCN1CCN(C(=O)C2(C)CCCCC2)CC1`, for which the displacement is -7.1%. With `Cc1cc(C(=O)NCc2ccco2)ccc1[N+](=O)[O-]` the figure was 3.8%; with `COc1ccc(CNC(=O)c2ccc(C3SCC(=O)N3Cc3ccccc3)cc2)cc1` (centres undefined), -8.8%; with `CCN1CCN(c2nc(-c3ccc(Cl)cc3)nc3ccccc23)CC1`, 2%.

Regarding `Cc1ccc(C)c(NC(=S)NC(=O)c2ccco2)c1`, the displacement is 2%.

For the compound `Cc1cccc(OCCCCCn2ccnc2)c1C`, the displacement is -5.9%.

For the compound `CCOc1ccccc1N1CCN(C(=O)/C=C/c2ccc(C(C)(C)C)cc2)CC1`, the displacement was -3.8%. For the compound `COc1ccc(-c2noc(COc3ccc(C)cc3Br)n2)cc1OC`, the displacement amounted to 0%. On to `O=C(Nc1ccc(Cl)cc1)c1ccc(I)cc1`, for which the displacement was determined as 9.1%. With `COc1ccccc1NC1C=CC(=O)C1Nc1ccccc1OC` (centres undefined), the displacement was 8%.

In the case of `O=C(NN=C1CCC(c2ccccc2)CC1)c1ccccc1I` (centres undefined), the displacement was determined as 4.8%.

For `COc1ccc(CNCc2cc(OC)c(OC)cc2OC)cc1`, the displacement amounted to 4.2%.

Regarding `O=C(NCCN1CCN(S(=O)(=O)c2ccc3ccccc3c2)CC1)C(=O)Nc1ccccc1`, the displacement came out at 11.3%. With `CC(=O)Nc1cc(C23CC4CC(CC(C4)C2)C3)ccc1C`, the displacement is -3.3%.

On to `O=C(CSc1nc2ccccc2o1)Nc1ncccn1`, for which the displacement was -2.6%. `CC(C)c1ccccc1NC(=O)COc1ccc2ccccc2c1`: the displacement was -6.9%. In the case of `CCOc1cc(C=O)ccc1OCCN1CCOCC1`, the displacement came out at 13.5%. Turning to `CCc1c(C)nc2ccc(Br)cc2c1SCC(=O)O`, the displacement was 1%. In the case of `COc1ccc(C2Nc3ccccc3C(=O)N2Cc2ccco2)cc1OC` (centres undefined), the displacement amounted to 12.9%. `COc1cccc(/C=N/NC(=O)CSc2ccc3ccccc3n2)c1`: the displacement is -7.5%. In the case of `CC(=O)N/N=C\c1cc(C)cc(/C=N\NC(C)=O)c1O`, the displacement turned out to be 41.7%. Then `O=C(/C=C/c1ccc([N+](=O)[O-])cc1)Nc1ccc(S(=O)(=O)N2CCOCC2)cc1`, with 6.3%; and `O=C(NC1CCCCCCC1)c1cnccn1`, with -8.3%; and `O=[N+]([O-])c1ccc(N2CCN(c3ccc(C(F)(F)F)cc3[N+](=O)[O-])CC2)cc1NCc1ccccc1`, with -9.4%.

As to `O=C(Nc1ccc(I)cc1Cl)c1ccc([N+](=O)[O-])cc1`, the displacement was -1.1%. Consider `COc1cc(CN2CCN(Cc3ccccc3Br)CC2)cc(OC)c1O`, for which the displacement was -1.3%. Turning to `O=C(O)c1ccc(-n2c(O)c(/C=C3\C=Nc4ccccc43)sc2=S)cc1`, the displacement was -137%. `O=C1NN(c2ccccc2)C(=O)/C1=C/c1ccc(OCc2ccc(F)cc2)cc1`: the displacement was -11.9%. Take `COc1ccc(/C=N/NC(=O)Cc2nnc(N)s2)cc1OC`: the displacement stood at 35.4%. With `COC(=O)CSc1nc2sc3c(c2c(=O)n1-c1ccc(OC)cc1)CCN(Cc1ccccc1)C3` the figure was -37.8%; with `COc1ccc(CC(=O)Nc2ccc(Cl)cc2)cc1OC`, 8.5%. With `Cc1c(C(=O)Nc2cccc(C(=O)O)c2)cccc1[N+](=O)[O-]` the figure was 3.8%; with `COc1ccc(-c2cc(C(F)(F)F)n3nc(C(=O)O)c(Cl)c3n2)cc1`, 3.2%; with `Cc1nn2c(C(F)(F)F)cc(-c3ccc(Cl)cc3)nc2c1C(=O)NCc1ccco1`, -11.4%. `O=c1oc2c(CN3CCOCC3)c(O)ccc2cc1-c1nc2ccccc2[nH]1`: the displacement worked out at 139%.

In the case of `CCOC(=O)C1=C(O)/C(=C/c2cc(C)n(-c3cccc(Cl)c3)c2C)N=C1C`, the displacement stood at 20.3%.

Regarding `Cc1ccccc1N1C(=O)C2C3c4ccccc4C(C)(c4ccccc43)C2C1=O` (centres undefined), the displacement was 1.4%. For `CC(=O)c1c(C)oc2ccc(OC(=O)c3cccc(Cl)c3)cc12`, the displacement is 9.1%. In the case of `CC(=O)Nc1cccc(/C(C)=N/N=C2/NC(=O)C(CC(=O)Nc3ccc(C(=O)O)cc3)S2)c1` (centres undefined), the displacement is 10.5%.

Consider `Cc1cc(=O)oc2cc(OCC(=O)OC(C)(C)C)ccc12`, for which the displacement was -7.7%. With `Clc1ccc(N2COc3ccc4ccccc4c3C2)cc1` the figure was 26.7%; with `COc1cc(/C=C2\C(=O)NC(=S)N(c3ccc(Br)cc3)C2=O)ccc1OCC(=O)O`, 2.2%. For the compound `O=C(NC(Cc1ccccc1)C(=O)Nc1ccccc1)OCc1ccccc1` (centres undefined), the displacement was 9.4%. On to `COc1ccc(Br)cc1C(=O)Nc1ccc(-c2nc3ncccc3o2)cc1`, for which the displacement worked out at 5.4%. Take `Cc1ccc(C(=O)N/N=C\c2cc(Cc3ccccc3Cl)ccc2O)cn1`: the displacement was -8.8%. With `CCCC(C)NS(=O)(=O)c1ccc(Cl)cc1` (centres undefined) the figure was -7.9%; with `O=C(/C=C/c1cccc([N+](=O)[O-])c1)Nc1ccc2oc(-c3ccccc3)nc2c1`, -6.5%.
